# In ChEMBL document CHEMBL4888484, “Replenishing the malaria drug discovery pipeline: Screening and hit evaluation of the MMV Hit Generation Library 1 (HGL1) against asexual blood stage Plasmodium falciparum ,using a nano luciferase reporter read-out” (2022):
# The campaign covered roughly 150,000 compounds. About 540 (0.36%) showed an effect of 50% or more. This is one part of the list.
# Test system: Plasmodium falciparum
# Experiment: Primary screen in NF54 nanoGlo assay, in single point, at 2uM, 72h; a lower Z score goes with more inhibition
# Type: functional, Erythrocyte
# Conditions: timepoint 72 hour
Structure (SMILES),% Inhibition [%],Z score
C[C@@H](C(=O)NCCOc1ccccc1)N1C(=O)NC2(CCCC2)C1=O,-12,1.57
COc1ccc2c(c1)N1CCN(Cc3ccc(F)cc3)CC1C(C(=O)Nc1ccc(F)cc1)C2 (stereo unspecified),-4,0.45
Cc1n[nH]c(C)c1CNC(=O)N1CCNC(=O)[C@@H]1c1ccc(F)cc1,-10,1.59
O=C(O)C1Cc2c([nH]c3ccccc23)C(c2c(O)ccc3ccccc23)N1 (stereo unspecified),4,-0.34
C#CCN1CCCC1C(O)C(F)(F)F (stereo unspecified),6,-0.77
Cc1cc(C)nc(NC(=O)c2occ3c2CCC3)n1,-3,0.33
COc1cccc(C(=O)NCC(=O)N2CC=C(c3ccccc3)C2)c1,31,-1.08
Cc1nc(CCC(=O)N2CCC[C@@]3(CCC(=O)N(CC4CC4)C3)C2)n[nH]1,-6,0.61
COc1ccccc1CN1C(=O)c2ccc(-c3ccccc3)n2C[C@@]1(C)C(=O)NC1CCCCC1,-19,3.15
CCCCN(CCO)C(=O)Nc1ccc(OC)c(Cl)c1,-11,1.48
O=C(c1cccnc1O)N1CC[C@@]2(CCCN(Cc3ccc(F)c(F)c3)C2=O)C1,2,-0.34
CCOC(=O)N1CCN(C(=N)C(F)(F)F)CC1,7,-1.12
CC(C)C(NC(=O)NC1CCC(=O)NC1C)C1(CO)CCCC1 (stereo unspecified),-8,1.29
CC1=C[C@@H](CNC(=O)c2ccccn2)[C@H](C(C)C)C[C@H]1CC(=O)NCCN1CCOCC1,19,-2.2
O=C(CNC1CCCCC1)N1CCc2ccccc2C1,-1,0.09
Cc1n[nH]c([C@H]2CCCN(Cc3nc4ncccn4n3)C2)n1,-6,1.23
CCC(C)[C@@H](NC(=O)Nc1cc(C)ccc1C)C(=O)OC (stereo partly specified),1,-0.1
Cc1cccn2c(CNc3ccc(C(=O)NCCO)c(Cl)c3)cnc12,-8,0.74
Cc1csc2c(Oc3cncc(C(N)=O)c3)ncnc12,-1,0.15
COC(=O)CN1CCC2(CC1)C[C@@H](c1ccccc1)C(=O)N(C)C2,9,-1.26
CCCCOCCN(C(=O)CN(C)S(C)(=O)=O)c1ccc(Br)cc1,1,-0.2
Cc1cc(C)c(S(=O)(=O)N2CC(OCc3ccccc3Cl)C2)cc1C,-17,3.24
O=C1OCCN1CCCNC1(c2ccc(F)cc2)CCC1,-1,0.08
Cc1nc([C@@H]2CCCN2Cc2ccc(-c3ccn[nH]3)o2)cs1,27,-3.93
CC(C)CC(=O)N1CCN(C(=O)c2ccncc2)[C@H]2CS(=O)(=O)C[C@H]21,-23,2.33
Cc1nc2nc(-c3cccs3)nn2c(C)c1CC(=O)NCCO,5,-0.56
Cc1cc(C(=O)NC[C@H](C)N2CCc3ccccc32)cc(S(N)(=O)=O)c1C,4,-0.51

Structure (SMILES),% Inhibition [%],Z score
O=C(O)C1(Oc2ccc(Cl)cc2)CCN(c2ncccn2)CC1,-6,1.19
Cc1cccc2c(=O)n(CCCC(=O)Nc3cc(C(F)(F)F)ccc3N3CCOCC3)cnc12,-14,2.63
CC[C@@H](C(=O)NCCN1CCOCC1)N(c1ccc(C)cc1)S(C)(=O)=O,-7,0.87
Cc1cc(NC(=O)C(=O)NCc2ccc(Cn3cc(Cl)cn3)cc2)no1,-5,0.68
O=C1CC[C@@H](C(=O)Nc2cccc(Cn3cnc4ccccc43)c2)N1,-20,2.84
Cc1ccc2nc(NC(=O)[C@@H](NC(=O)c3ccccc3F)C(C)C)sc2c1,-7,0.91
CN(C)c1noc(CN(Cc2cccs2)CC(F)(F)F)n1,17,-2.2
CN(C)c1ncc(NS(=O)(=O)Cc2ccccc2)cn1,-7,1.27
O=C(O)[C@@H]1CC2(CCNCC2)CN1C(=O)c1scc2c1CCCC2,-15,1.88
CCc1nnc(CNC(=O)c2csc(C)c2)o1,1,-0.18
CCc1cc(CNC(=O)c2ccccc2NC(=O)[C@@H](C)CC)on1,1,-0.15
Cc1cc(=O)c(OCC(=O)Nc2ccc3c(c2)OCO3)c[nH]1,-12,1.55
CC(C)N(CCNC(=O)Nc1ccccn1)C1CC1,-4,0.59
O=C(CN1CCC[C@H]1c1ccncc1)Nc1ccc(Cl)cc1C(F)(F)F,-9,0.81
Nc1c2c(-c3ccc(F)cc3)nc(NCc3cccc(F)c3)nc2nn1-c1ccccc1Cl,-22,2.78
CCC[C@H](OC(=O)c1ccc(N(C)C)cc1)C(=O)Nc1cc(C)on1,-2,0.21
CCN1CC(C(=O)NC2(C)CCOC2C)CC1=O (stereo unspecified),-22,4.44
O=C(NC[C@@H]1C[C@@H](c2nnc[nH]2)C[C@@H]1O)c1ccsc1C(F)F,-1,0.27
COC(=O)c1ccc(NC(=O)c2coc(NC(=O)c3cc(C)on3)n2)cc1,14,-1.99
CCc1ccccc1CC(=O)Nc1ccc(C[C@@H]2NC(=O)NC2=O)cc1,-5,0.61
O=C(NCc1ccccc1)N1CCCC[C@H]1c1nnc(-c2cnccn2)[nH]1,4,-0.74
C/C(=C\c1ccccc1)[C@@H]1CC(=O)Nc2n[nH]c(C3CCC3)c21,-10,1.56
Cc1cc(C)c(NC(=O)C2(N(C(=O)Cc3ccccc3)C3CC3)CCC3Cc4ccccc4CC3C2)c(C)c1 (stereo unspecified),-16,1.83
CN1C(=O)[C@@H]2CC[C@H]1CN(C(=O)Cc1ccncc1)C2,-2,0.27
CN1CCN(Cc2nnc(C3CCC3)n2C)c2cccnc21,-13,1.66
Cn1c(NC(=O)C2CCCCC2)c(-c2cccc3ccccc23)c(=O)c2ccccc21,-6,0.8
